Laboratory results published in PubChem BioAssay AID1347417 (National Center for Advancing Translational Sciences (NCATS), 2020).
Hit rate of the full screen: of about 120,000 compounds, about 5,300 (4.4%) were called active. Inconclusive results, whose numbers are uncertain, are shown with a selection of clear calls. Calls come from the whole dose curve; as a rule, active = well fitted inhibition curve with a large enough effect; inconclusive = small, poorly fitted or top-dose-only effect; inactive = no such curve, though single readings can be large or run the other way. A potency beside an inconclusive call is a rough fit, not a confirmed value.

assay: qHTS Primary assay for Inhibitors of Plasmodium falciparum Dd2 growth in vitro; note: nearly all actives have a fitted effect of over 65% in size;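 for activity, negative = inhibition: plate controls were DMSO vehicle for no effect and reference drug for full effect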; conditions: P. falciparum Dd2 growth, SYBR Green, 72 h; activity, negative = inhibition: at 28.9 µM (top of the series) unless noted; series mostly up to 28.9 µM
In short: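 Infected erythrocytes (Dd2, 0.3% parasitemia, 2.5% hematocrit final) are added to compound in RPMI-1640/Albumax II medium, grown 72 h at 37C in low oxygen, then lysed with saponin/Triton-X containing SYBR Green and read by fluorescence.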
Potency is the fitted concentration of half-maximal effect; tags give direction and shape of the fitted curve.

Compound | Potency | activity, negative = inhibition
CCCCNC(=O)c1cccc2c1CCN2C(=O)C1CC1 | inconclusive: 10 µM [inhibitor, partial curve] | 
O=C(Nc1ccc(-c2nnc3n2CCCC3)cc1)c1cc(-c2ccccc2)n[nH]1 | active: 14.1 µM | 
Cc1ccc(C2=NC3(CCN(C(=O)COc4ccc(F)cc4)CC3)ON2)cc1 | inconclusive: 3.98 µM [inhibitor, single point] | 
Cc1ncc2c(n1)C[C@@H]1CC[C@H]2N1C(=O)c1nn(C)c2ccccc12 | inconclusive: 3.16 µM [inhibitor, single point] | 
CCOC(=O)c1c(C)oc2nc(C)nc(NCc3cccc(OC)c3)c12 | inconclusive: 10 µM [inhibitor, single point] | 
O=C(NCCc1c[nH]c2ccccc12)c1ccccc1C1CCNC1 (stereo not drawn) | inactive | 
COc1ccc(C)cc1NC(=O)C(NS(=O)(=O)c1cccc2nsnc12)c1ccccc1 (stereo not drawn) | inactive | 
COc1cc(CN2CCC(C)(NC(C)=O)CC2)cc(-c2ccccc2)c1 | inactive | 
CCN(CC)C(=O)Cn1cc(SCC(=O)Nc2ccc(C)cc2)c2ccccc21 |  | inactive: 77.9% [at 5.79 µM]
Cc1ccccc1-c1cn(C)c(=O)n2cc(CNc3ccccc3)nc12 | inconclusive: 5.62 µM [inhibitor, single point] | 
COc1ccc(CC(=O)N[C@H]2C[C@@H](c3nc(-c4ccc(OC(F)(F)F)cc4)no3)N(C)C2)cc1 | inconclusive: 11.2 µM [inhibitor, single point] | 
O=C(NCC(c1cccnc1)N1CCCCC1)c1cn2c(n1)CNCC2 (stereo not drawn) | inactive | 
Cc1noc(C)c1[S+](=O)([O-])N1CCn2cc(C(=O)Nc3ccc(Cl)cc3Cl)nc2C1 | inactive | 
O=C(CCC1CCCC1)Nc1cccc(-c2nnc3n2CCCC3)c1 | inconclusive: 3.98 µM [inhibitor, single point] | 
COc1cccc(C(O)c2nc(C(=O)Nc3ccc4c(c3)OCC(=O)N4)c(C)o2)c1 (stereo not drawn) | inconclusive: 7.94 µM [inhibitor, partial curve, poor fit] | 
N#Cc1ccc(C(=O)N2CCC3(CC2)NC(=O)N(Cc2ccccc2)C3=O)cc1 | inconclusive: 3.55 µM [inhibitor, single point] | 
COc1ccc(Cl)cc1NC(=O)CSC1=Nc2ccccc2C2=NC(CC(=O)NCc3ccc4c(c3)OCO4)C(=O)N12 (stereo not drawn) | inconclusive: 17.8 µM [inhibitor, single point] | 
CCO[C@H]1C[C@@H](O)C12CCN(C(=O)c1cc3nc(C)cc(C)n3n1)CC2 | inactive | 
COc1ccc(-n2nc(C3CCCN(Cc4cccc5ccccc45)C3)[nH]c2=O)cc1 (stereo not drawn) | inactive | 
Cc1noc2c(NC(C)C)cc(-c3ccc(Cl)cc3)nc12 | inactive | 
CCNC[C@H]1O[C@H](Cc2cc(-c3ccc(F)cc3)on2)CC[C@@H]1O | inconclusive: 14.1 µM [inhibitor, single point] | 
O=C1NCCCCCCN(Cc2ccncc2)[C@@H]2CN(S(=O)(=O)Cc3ccccc3)CC[C@@H]12 | inconclusive: 7.94 µM [inhibitor, partial curve] | 
COc1cc(NC(=O)CSC2=Nc3ccccc3N=C(c3ccc(F)cc3)C2)cc(OC)c1 | inconclusive: 17.8 µM [inhibitor, single point] | 

Compound | Potency | activity, negative = inhibition
Cc1sc2c(c1C)c(=O)n(-c1cccc(C(F)(F)F)c1)c(=O)n2Cc1ccc(F)cc1 | inconclusive: 0.708 µM [inhibitor, full curve, poor fit] | 
O=C(NC1CCCCC1)OC[C@H]1C[C@@H]2CCN1C[C@@H]2c1cc(C2CCCC2)nc(-c2ccncc2)n1 | inconclusive: 11.2 µM [inhibitor, partial curve, poor fit] | 
CN(Cc1ccnn1C)C1CCOc2ccccc21 (stereo not drawn) | inactive | 
Cc1ccc(Cn2ccn3nc(-c4ccccc4)c(CO)c3c2=O)cc1 | inconclusive: 14.1 µM [inhibitor, single point] | 
COC(=O)c1ccc(NC(=O)CCc2c(C)nc3c(c2C)c(=O)n(C)c(=O)n3C)cc1 | inconclusive: 1.12 µM [inhibitor, single point] | 
CC(C)CCNC(=O)CCC1CCN(S(=O)(=O)c2cccc(F)c2)CC1 | inconclusive: 10 µM [inhibitor, single point] | 
Cc1ccc(CCNC(=O)C2CCN(c3nnc(-n4cccc4CNc4ccc(C)cc4)s3)CC2)cc1 | inconclusive: 7.94 µM [inhibitor, partial curve, poor fit] | 
O=C(NC1CCCCC1)[C@@H]1C[C@@H](O)CN1C1CCN(C(=O)CN2CCCC2=O)CC1 | inconclusive: 3.98 µM [inhibitor, single point] | 
COc1ccc(/C=C/C(=O)Nc2nc3n(n2)C(c2ccccc2)C=C(c2ccccc2)N3)cc1 (stereo not drawn) | active: 7.94 µM | 
CC1=C[C@@H](CN2CCC(O)CC2)[C@H](C(C)C)C[C@H]1Cc1nnc(-c2ccncc2)o1 | inconclusive: 3.98 µM [inhibitor, partial curve, poor fit] | 
Cc1ccc(CNC(=O)C2CCN(c3cn[nH]c(=O)c3)C2)cc1 (stereo not drawn) | inactive | 
O=C1CCCN1CC1CCCN(Cc2cc(F)ccc2-n2cccn2)C1 (stereo not drawn) | inconclusive: 10 µM [inhibitor, partial curve, poor fit] | 
Cc1cc(=O)n(CC(=O)Nc2c(C)cccc2C)c(N(C)Cc2ccccc2)n1 | inconclusive: 17.8 µM [inhibitor, single point] | 
O=C(CN1C(=O)CC(c2ccccc2)Sc2ccccc21)Nc1cccc(Cl)c1 (stereo not drawn) | inconclusive: 17.8 µM [inhibitor, single point] | 
Cc1nnc([C@H]2CCN(Cc3ccc(C#N)cc3)C2)o1 | inactive | 
COCCOCC(=O)N1CCC(N2CC3CC(C2)[C@H]2CCCC(=O)N2C3)CC1 (stereo partly drawn) | inactive | 
Cc1noc(C)c1CN1CCC2(CC1)COCCN2C(=O)c1ccccc1 | inconclusive: 3.55 µM [inhibitor, full curve] | 
Cc1cc(C)n(Cc2ccc(-c3nc(C)no3)cc2)n1 | inactive | 
Cc1cc2cc(-c3c(C)noc3C)nc(-c3ccsc3)c2o1 | inconclusive: 35.5 µM [inhibitor, single point] | 
O=C(CCC1CCCN(Cc2cccn2-c2ccccn2)C1)Nc1ccccc1F (stereo not drawn) | active: 7.94 µM | 
Cc1onc(-c2ccccc2)c1C(=O)N[C@@H]1CCC[C@@H](C(=O)N2CCN(C)CC2)CC(=O)N(C)C1 | inactive | 
COc1ccc(OC)c(CNS(=O)(=O)c2c(C(=O)N3CCCCCC3)c(C)n(C)c2C)c1 | inconclusive: 20 µM [inhibitor, partial curve, poor fit] | 
COc1ccc(CN2C(=O)O[C@@H]3CN(Cc4nc[nH]c4C)C[C@@H]32)cc1OC | inactive | 

Compound | Potency | activity, negative = inhibition
Cc1ccc(CNC(=O)N2CCCC(c3nn(C)c(=O)n3Cc3ccccc3)C2)cc1 (stereo not drawn) | inconclusive: 7.94 µM [inhibitor, single point] | 
COc1ccc(Cl)cc1NC(=O)c1c(NCc2sccc2C)sc2c1CCCC2 | active: 12.6 µM | 
Cc1ccc(-c2[nH]ncc2CN2C[C@@H](CO)[C@H](c3ccccn3)C2)cc1 | inconclusive: 12.6 µM [inhibitor, single point] | 
O=C(c1cc(Br)cn2ccnc12)N1CCC(N2CCNC2=O)CC1 | inactive | 
COc1cccc(CCNC(=O)c2c(C)noc2-c2cc(OC)cc(OC)c2)c1 | inconclusive: 7.94 µM [inhibitor, partial curve] | 
O=S(=O)(c1ccccc1)c1nnn2c1nc(NCc1ccncc1)c1ccccc12 | inactive | 
Cc1ccc(C(N)=O)cc1-c1cc(NCc2cccnc2)nc2[nH]ccc12 | inactive | 
CCOc1ccc(NCc2cccn2-c2nnc(N3CCC(C(=O)NCCc4ccc(OC)c(OC)c4)CC3)s2)cc1 | active: 7.08 µM | 
S=C(Nc1cccc2ccccc12)N[C@H]1CO[C@H]2[C@@H]1OC[C@H]2OCc1ccccc1 | inconclusive: 31.6 µM [inhibitor, single point] | 
O=C1Nc2ccc(-c3ccccc3)cc2C(=O)N2CCN(C(=O)c3cccc(F)c3)C[C@H]12 | inconclusive: 14.1 µM [inhibitor, single point] | 
Cc1ccc(C(=O)N2CCN(C(=O)c3nnn4c3COC(c3ccc(Cl)cc3)C4)CC2)cc1F (stereo not drawn) | inconclusive: 2.51 µM [inhibitor, partial curve, poor fit] | 
CCC(=O)NCC(c1ccc2c(c1)OCO2)N1CCN(c2ccccc2)CC1 (stereo not drawn) | inactive | 
Cc1noc(C)c1[S+](=O)([O-])N1CCCC2(CC(c3cccc(C(F)(F)F)c3)=NO2)C1 (stereo not drawn) | inactive | 
CN(C)C[C@@H]1CN(c2ccncn2)C[C@H]1NC(=O)c1cnco1 | inconclusive: 0.1 µM [inhibitor, full curve, poor fit] | 
CC(C)c1ccc(NC(=O)O[C@@H]2CO[C@H]3[C@@H]2OC[C@@H]3NS(=O)(=O)Cc2ccccc2)cc1 | inconclusive: 3.98 µM [inhibitor, single point] | 
COc1cccc(Nc2c3c(nc4nncn24)CCC3)c1 | inconclusive: 17.8 µM [inhibitor, single point] | 
CCc1cccc(C)c1NC(=O)Cn1nc2n(c1=O)CCCC2 | inactive | 
CCc1ccc(C2CC(=O)Nc3c2c(C)nn3-c2nc(C)cc(C)n2)cc1 (stereo not drawn) | active: 11.2 µM | 
COCCN(Cc1cnn(-c2ccccc2C)c1)CC1CC1 | active: 7.08 µM | 
O=C(NC1CCN(c2cc(-c3ccccc3)[nH]n2)CC1)c1ccccc1 | inactive | 
CC(C)Oc1ccc2ccccc2c1CN1C[C@H](O)C[C@H]1C(=O)O | inactive | 
COc1cc(OC)cc(C(=O)Nc2ccc3c(c2)N(C2CCCC2)C(=O)c2ccccc2S3)c1 | inconclusive: 17.8 µM [inhibitor, single point] | 
